Measured values: PubChem BioAssay AID504332 (National Center for Advancing Translational Sciences (NCATS), 2011)
In all, about 350,000 compounds went through this assay and about 31,000 (8.9%) were called active. Inconclusive results, whose numbers are uncertain, are shown with a selection of clear calls. Calls follow the shape of the dose curve; as a rule, active = well fitted inhibition curve with a large enough effect; inconclusive = small, poorly fitted or top-dose-only effect; inactive = no such curve, though single readings can be large or run the other way. A potency beside an inconclusive call is a rough fit, not a confirmed value.

target: Histone-lysine N-methyltransferase EHMT2 (Homo sapiens) (UniProt Q96KQ7); assay: qHTS Assay for Inhibitors of Histone Lysine Methyltransferase G9a; conditions: G9a H3K9 monomethylation, AlphaScreen, 2 h; activity, negative = inhibition: at 59 µM (top of the series) unless noted; also: nearly all actives have a fitted effect of over 75% in size
Method in brief: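 Step 1: enzyme (final 20 nM) with compound, 15 min RT. Step 2: substrate peptide 500 nM and SAM 20 uM, 2 h RT. Step 3: anti-H3K9me1 antibody and AlphaScreen beads, 10 min, then plate read.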
% is scaled to controls: 0 for no effect and ±100 for the full control effect; potency is read from the fitted curve at half-maximal effect; tags tell the direction and shape of the fitted curve.

Chain of UniProt Q96KQ7 (Q96KQ7 whole entry, looked up): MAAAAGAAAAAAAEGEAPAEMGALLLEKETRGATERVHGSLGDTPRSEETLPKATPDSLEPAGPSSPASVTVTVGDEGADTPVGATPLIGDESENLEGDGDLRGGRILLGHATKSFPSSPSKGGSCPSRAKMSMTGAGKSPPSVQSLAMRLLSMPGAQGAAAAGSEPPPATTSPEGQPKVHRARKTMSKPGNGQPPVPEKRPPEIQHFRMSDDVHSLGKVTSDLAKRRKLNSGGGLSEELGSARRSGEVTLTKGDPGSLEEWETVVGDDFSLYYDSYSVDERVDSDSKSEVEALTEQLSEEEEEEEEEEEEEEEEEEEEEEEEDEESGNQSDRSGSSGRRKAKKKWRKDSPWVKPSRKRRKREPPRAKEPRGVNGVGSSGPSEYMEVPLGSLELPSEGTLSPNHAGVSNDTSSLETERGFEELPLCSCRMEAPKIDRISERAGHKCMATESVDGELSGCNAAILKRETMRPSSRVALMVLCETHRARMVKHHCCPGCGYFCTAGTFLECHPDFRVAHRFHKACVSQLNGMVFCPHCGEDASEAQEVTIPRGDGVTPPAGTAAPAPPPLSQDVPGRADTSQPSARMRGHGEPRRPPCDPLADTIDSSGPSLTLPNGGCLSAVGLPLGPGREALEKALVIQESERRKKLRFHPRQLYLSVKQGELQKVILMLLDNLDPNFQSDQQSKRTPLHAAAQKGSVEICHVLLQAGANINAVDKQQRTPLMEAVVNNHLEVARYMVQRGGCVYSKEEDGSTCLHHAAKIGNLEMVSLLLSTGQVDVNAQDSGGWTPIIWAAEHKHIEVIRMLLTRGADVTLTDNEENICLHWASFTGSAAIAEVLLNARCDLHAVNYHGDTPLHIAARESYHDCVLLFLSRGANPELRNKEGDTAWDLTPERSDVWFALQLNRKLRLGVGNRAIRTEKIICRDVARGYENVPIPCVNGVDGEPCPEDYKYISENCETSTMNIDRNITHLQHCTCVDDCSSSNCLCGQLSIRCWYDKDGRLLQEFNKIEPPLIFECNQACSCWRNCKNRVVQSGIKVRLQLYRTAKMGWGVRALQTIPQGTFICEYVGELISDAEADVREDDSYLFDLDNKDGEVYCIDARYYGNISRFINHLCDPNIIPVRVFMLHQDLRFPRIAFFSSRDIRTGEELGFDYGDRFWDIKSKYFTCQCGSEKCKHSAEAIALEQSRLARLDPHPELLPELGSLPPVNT

Row | SMILES | Potency | activity, negative = inhibition
1 | COc1ccc(N/C=C\C(=O)c2ccc3ccccc3c2)cc1 | inconclusive: 39.8 µM [inhibitor, single point] | –
2 | Cc1ccc(F)cc1NC(=O)CSc1nc(Nc2ccccc2)nc(N2CCOCC2)n1 | inconclusive: 50.1 µM [inhibitor, partial curve, poor fit] | –
3 | O=C(CSc1ccc(Cl)cc1)N1CCN(c2c(Cl)cccc2[N+](=O)[O-])CC1 | inconclusive: 28.2 µM [inhibitor, partial curve] | –
4 | CC(C)CN1CCN(Cc2cccn2-c2ccc(Cl)cn2)CC1CCO (stereo not given) | inconclusive: 79.4 µM [inhibitor, partial curve, poor fit] | –
5 | N=C1c2ccccc2CN1NC(=O)c1cccc(S(=O)(=O)N2CCCC2)c1 | inconclusive: 89.1 µM [inhibitor, single point] | –
6 | O=C(O)CCC(=O)NNC(=O)c1ccc([N+](=O)[O-])cc1 | – | inactive: 1.97% [at 102 µM]
7 | CC(CN1CCCCC1)OC(=O)C1c2ccccc2Oc2ccccc21 (stereo not given) | inconclusive: 12.6 µM [inhibitor, single point] | –
8 | CN(Cc1nc2ccccc2c(=O)[nH]1)Cc1cc(=O)oc2ccc3ccccc3c12 | inconclusive: 25.1 µM [inhibitor, single point] | –
9 | Clc1ccc(CSc2nnc3c(n2)[nH]c2ccccc23)cc1 | inconclusive: 39.8 µM [inhibitor, partial curve, poor fit] | –
10 | COC(=O)C1=C(C)N(c2cc(C)cc(C)c2)/C(=C/c2ccc(O)cc2)C1=O | inconclusive: 50.1 µM [inhibitor, partial curve, poor fit] | –
11 | O=C(Nc1nccs1)c1ccc(N2CCOCC2)c([N+](=O)[O-])c1 | inconclusive: 63.1 µM [inhibitor, single point] | –
12 | CC(C)c1ccc(Nc2c(-c3ccc(N(C)C)cc3)nc3cnccn23)cc1 | – | inactive: -11.4%
13 | Cc1ccc(Nc2c(-c3ccc(C)cc3)nc3c(C)cccn23)cc1 | active: 11.2 µM | –
14 | Nc1nc(CN2CCN(Cc3ccc4c(c3)OCO4)CC2)nc(Nc2ccccc2)n1 | – | inactive: 18.3% [at 12.7 µM]
15 | COC(=O)c1ccccc1NC(=O)c1cc(-c2ccco2)on1 | active: 39.8 µM | –
16 | CCC1ON(C(C)C)C2c3nc4ccccc4n3CC12 (stereo not given) | inconclusive: 22.4 µM [inhibitor, single point] | –
17 | CCOc1ccccc1-n1nnnc1SCC(=O)NC(=O)NCc1ccco1 | active: 79.4 µM | –
18 | C=CC(C1=CC(=O)C(OC)=CC1=O)c1ccc(O)cc1 (stereo not given) | – | inconclusive: -60.1% [inhibitor] [at 2.33 µM]
19 | O=C(COc1coc(CN2CCc3ccccc3C2)cc1=O)Nc1cccc(Cl)c1 | inconclusive: 70.8 µM [inhibitor, partial curve, poor fit] | –
20 | CCOC(=O)C(=Cc1cc(=O)c(OC)co1)C(=O)OCC | active: 10 µM | –

Row | SMILES | Potency | activity, negative = inhibition
21 | CN(C(=S)NC(=O)CCCOc1ccc(Cl)cc1Cl)c1ccccc1 | inconclusive: 20 µM [inhibitor, single point] | –
22 | O=C(Cc1ccc(Cl)cc1)Nc1ccc2oc(-c3ccccc3F)nc2c1 | inconclusive: 11.2 µM [inhibitor, full curve, poor fit] | –
23 | CN1C(C(=O)N2CCc3ccccc3C2)=CC(c2ccc(F)cc2)=NS1(=O)=O | inconclusive: 89.1 µM [inhibitor, single point] | –
24 | COc1ccccc1C(=O)NCCN1CCN(C(=O)c2ccccc2OC)CC1 | inconclusive: 31.6 µM [inhibitor, single point] | –
25 | Cc1ccc(S(=O)(=O)CC(C)N2CCOCC2)c(S(=O)(=O)CC(C)N2CCOCC2)c1 (stereo not given) | inconclusive: 39.8 µM [inhibitor, single point] | –
26 | CCNc1nc(SC(C(C)=O)C(C)=O)nc(N(C)C)n1 | – | inconclusive: -101% [inhibitor]
27 | CCCN1C(=O)/C(=C2/C=Cc3ccccc3N2CC)SC1=S | active: 3.16 µM | –
28 | Cc1cccc(Nc2nc(-c3ccncc3)cs2)c1 | inconclusive: 50.1 µM [inhibitor, partial curve] | –
29 | COc1cccc(-c2ccc3ncnc(N(C)C)c3c2)c1 | – | inactive: 3.62% [at 0.501 µM]
30 | C#CCOCCOCCOCCNc1nc(N2CCN(C(=O)[C@H]([C@@H](C)CC)n3cc([C@@H](N)Cc4ccc(O)cc4)nn3)CC2)nc(N2CCN(C(=O)[C@H](CCCCN)n3cc([C@@H](N)C(C)CC)nn3)CC2)n1 (stereo not given in full) | – | inconclusive: -73.1% [inhibitor]
31 | N#C/C(=N\Nc1ccc(F)cc1)C(=N)N1CCCCCC1 | inconclusive: 7.94 µM [inhibitor, full curve] | –
32 | CCOc1c(Br)cc(/C=C2\C(=O)N(CCC#N)N=C2C)cc1OC | inconclusive: 25.1 µM [inhibitor, single point] | –
33 | O=S(=O)(c1ccccc1)N1CCN(CC(O)COc2ccc3c(c2)CCC3)CC1 (stereo not given) | inconclusive: 79.4 µM [inhibitor, single point] | –
34 | O=C1OCCC1Sc1ncnc2sccc12 (stereo not given) | inconclusive: 31.6 µM [inhibitor, partial curve, poor fit] | –
35 | O=c1c2ccccc2c(/C=N/c2nnc(Cc3ccccc3)s2)c(O)n1-c1ccc(Cl)cn1 | inconclusive: 12.6 µM [inhibitor, partial curve, poor fit] | –
36 | Cc1ccc2[nH]c(=O)c(CN(CCc3ccccc3)Cc3nnnn3CC3CCCO3)cc2c1 (stereo not given) | inconclusive: 20 µM [inhibitor, single point] | –
37 | CCCCCn1c(=O)c2c(nc3n2CCN3c2ccc(Br)cc2)n(C)c1=O | inconclusive: 11.2 µM [inhibitor, partial curve] | –
38 | CN(C)c1ccc(C(CC(=O)c2ccccc2)C2CCCCC2=O)cc1 (stereo not given) | inconclusive: 4.47 µM [inhibitor, full curve, poor fit] | –
39 | CC(NC(=O)CSc1nnc(CC(=O)Nc2ccc(Cl)c(Cl)c2)n1C)c1ccccc1 (stereo not given) | active: 12.6 µM | –
40 | COc1ccc(OC)c(-c2csc(NC(=O)COC(=O)C3CCC3)n2)c1 | inconclusive: 0.562 µM [inhibitor, partial curve, poor fit] | –
